{"source": "PubChem BioAssay AID624417", "about": "(National Center for Advancing Translational Sciences (NCATS), 2012)", "note": "Hit rate of the full screen: of about 410,000 compounds, about 6,400 (1.6%) were called active. Inconclusive means that the source gave no clear call. Such entries were picked first, then a sample of the others. Calls come from the whole dose curve; as a rule, active = well fitted inhibition curve with a large enough effect; inconclusive = small, poorly fitted or top-dose-only effect; inactive = no such curve, though single readings can be large or run the other way. No potency is given beside an inconclusive call; the fits are too rough. Potency is the fitted concentration of half-maximal effect; tags give direction and shape of the fitted curve."}
{"target": "Glucagon-like peptide 1 receptor (Homo sapiens) (UniProt P43220)", "sequence (P43220 whole entry, looked up)": "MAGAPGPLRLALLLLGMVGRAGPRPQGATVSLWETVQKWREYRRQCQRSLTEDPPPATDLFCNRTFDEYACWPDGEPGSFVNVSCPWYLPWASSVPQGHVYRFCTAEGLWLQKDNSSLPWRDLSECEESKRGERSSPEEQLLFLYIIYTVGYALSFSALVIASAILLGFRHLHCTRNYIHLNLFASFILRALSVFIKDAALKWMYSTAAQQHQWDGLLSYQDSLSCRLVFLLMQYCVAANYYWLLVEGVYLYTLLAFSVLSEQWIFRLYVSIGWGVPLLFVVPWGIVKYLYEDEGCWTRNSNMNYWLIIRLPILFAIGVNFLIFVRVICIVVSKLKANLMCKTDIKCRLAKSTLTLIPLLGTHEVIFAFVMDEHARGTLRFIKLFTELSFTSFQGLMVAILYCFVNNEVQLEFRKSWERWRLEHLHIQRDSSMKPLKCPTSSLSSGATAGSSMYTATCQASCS", "assay": "qHTS of GLP-1 Receptor Inverse Agonists (Inhibition Mode); note: nearly all actives have a fitted effect of over 55% in size", "conditions": "HEK293 GLP-1R CRE-luciferase, luminescence, 24 h, GLP-1R form is constitutively active; series mostly up to 38.3 µM", "how_it_was_run": "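Readout was luciferase luminescence, measured 12 min after detection reagent at room temperature. Beforehand, GLP-1R reporter HEK293 cells had sat 12 h, then received compounds for 24 hr at 37 deg C.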"}
{"compound": "CCN(CC)c1ccc(NC(=O)CCS(=O)(=O)c2cccc3nsnc23)c(C)c1", "Potency": "inactive"}
{"compound": "COc1ccc(-c2c(C)nn3c(N4CCN(Cc5ccccc5)CC4)cc(C)nc23)cc1OC", "Potency": "inactive"}
{"compound": "COc1ccccc1CCNC(=O)c1cc2c(=O)n3cccc(C)c3nc2n1C", "Potency": "inactive"}
{"compound": "O=C(NC(=S)NCCc1ccccc1)c1ccccc1F", "Potency": "inactive"}
{"compound": "Cc1cccc(-c2cc(C(=O)Nc3c(C)n(C)n(-c4ccccc4)c3=O)c3ccccc3n2)c1", "Potency": "inconclusive [inhibitor, single point]"}
{"compound": "COc1ccc2c(c1)Cc1sc(NC(=O)c3ccccc3)nc1-2", "Potency": "inconclusive [inhibitor, single point]"}
{"compound": "CCc1ccc(NC(=O)N2CC=C(c3c[nH]c4ccccc34)CC2)cc1", "Potency": "inconclusive [inhibitor, partial curve, poor fit]"}
{"compound": "CNc1nc(N)c(C(=O)C23CC4CC(CC(C4)C2)C3)s1", "Potency": "active: 5.62 µM"}
{"compound": "CC(C)(CCl)C(=O)Nc1ccc(Sc2ccc(F)cc2)cc1", "Potency": "inconclusive [inhibitor, single point]"}
{"compound": "CCOC(=O)c1ccc(NC(=O)c2nc[nH]c2C(=O)N[C@@H](CC(C)C)C(=O)OC(C)(C)C)cc1", "Potency": "inactive"}
{"compound": "COc1ccc(C(CNC(=O)c2cccc(S(=O)(=O)Nc3ccc(F)cc3)c2)N2CCCCC2)cc1", "note": "(stereo unspecified)", "Potency": "inconclusive [inhibitor, partial curve, poor fit]"}
{"compound": "S=C(NC1CCCCC1)N1CCN(C/C=C/c2ccccc2)CC1", "Potency": "inconclusive [inhibitor, partial curve, poor fit]"}
{"compound": "O/N=C/c1ccccc1Oc1ccc(Cl)cc1", "Potency": "inconclusive [inhibitor, partial curve, poor fit]"}
{"compound": "C(=NN=C(NN=Cc1cccs1)NN=Cc1cccs1)c1cccs1", "Potency": "inconclusive [inhibitor, single point]"}
{"compound": "Cc1nc2nc(COc3ccccc3)[nH]n2c(=O)c1Cl", "Potency": "inconclusive [inhibitor, partial curve, poor fit]"}
{"compound": "CCc1ccc(S(=O)(=O)/N=C2\\C=C(Nc3ccc(O)cc3)C(=O)c3ccccc32)cc1", "Potency": "inconclusive [inhibitor, partial curve, poor fit]"}
{"compound": "Cc1ccc(S(=O)(=O)N2CCN(Cc3ccccc3C(F)(F)F)CC2)cc1", "Potency": "inconclusive [inhibitor, single point]"}
{"compound": "c1ccc(COc2ncnc3c2ncn3CCCNCc2cccs2)cc1", "Potency": "inactive"}
{"compound": "OC(CNC1CCCCC1)CON=C1CCSc2c(Cl)cccc21", "note": "(stereo unspecified)", "Potency": "inconclusive [inhibitor, partial curve, poor fit]"}
{"compound": "CC1(Oc2ccc(F)cc2)CCN(Cc2ccccc2OC(F)F)C1", "note": "(stereo unspecified)", "Potency": "inconclusive [inhibitor, single point]"}
{"compound": "COC(=O)c1ccc(NC(=O)c2cc[n+](Cc3ccccc3)cc2)cc1", "Potency": "inactive"}
{"compound": "O=C(Nc1ccccc1N1CCOCC1)c1ccc2ccccc2c1", "Potency": "inconclusive [inhibitor, partial curve, poor fit]"}
{"compound": "O=C(OCc1ccc2c(c1)OCO2)c1cccc(S(=O)(=O)N2CCCCC2)c1", "Potency": "inconclusive [inhibitor, single point]"}
{"compound": "CC1CCCN(c2ccc(C(=O)NCc3ccc4c(c3)OCO4)cc2[N+](=O)[O-])C1", "note": "(stereo unspecified)", "Potency": "inconclusive [inhibitor, single point]"}
{"compound": "Cc1ccc2c(c1)c1c(n2C)-c2[nH]ncc2CC1", "Potency": "inactive"}
{"compound": "CC1Cc2ccccc2N1C(=O)c1ccc(Br)o1", "note": "(stereo unspecified)", "Potency": "inconclusive [inhibitor, single point]"}
{"compound": "OC(CNc1ncnc2sccc12)c1ccccc1", "note": "(stereo unspecified)", "Potency": "inconclusive [inhibitor, partial curve, poor fit]"}
{"compound": "COc1ccc(OC)c(/C=C/C(=O)N2CCCc3ccccc32)c1", "Potency": "inconclusive [inhibitor, single point]"}
{"compound": "CCCC(=O)Nc1cc(OC)c(C(=O)OC)cc1Cl", "Potency": "inactive"}
{"compound": "CCN(CCNC(=O)c1cccc(N2CCCC2=O)c1)c1ccccc1", "Potency": "inconclusive [inhibitor, partial curve, poor fit]"}
{"compound": "O=C(c1sc2ccccc2c1Cl)N1CCN(c2ccccc2F)CC1", "Potency": "inconclusive [inhibitor, partial curve, poor fit]"}
{"compound": "COc1ccccc1OCC(=O)NC1CCSc2ccccc21", "note": "(stereo unspecified)", "Potency": "inconclusive [inhibitor, single point]"}
{"compound": "COc1ccccc1-c1nnc(SCC(=O)Nc2ccc(S(N)(=O)=O)cc2)n1C", "Potency": "inactive"}
{"compound": "COCCN(CCOC)c1ncnc2c1cnn2-c1ccc(Cl)cc1", "Potency": "inconclusive [inhibitor, single point]"}
{"compound": "Cc1cc(NC(=O)c2cc(-c3ccncc3)nc3c(C)cccc23)no1", "Potency": "inconclusive [inhibitor, full curve]"}
{"compound": "O=c1c2ccccc2nc(COc2ccccc2)n1/N=C/c1ccc(O)cc1O", "Potency": "inconclusive [inhibitor, full curve, poor fit]"}
{"compound": "CC(OC(=O)c1nc(-c2ccccc2)n(-c2ccccc2)n1)C(=O)Nc1cc(Cl)cc(Cl)c1", "note": "(stereo unspecified)", "Potency": "inconclusive [inhibitor, single point]"}
{"compound": "O=C(NCCCn1ccnc1)/C(=C\\c1cccnc1)NC(=O)c1ccco1", "Potency": "inconclusive [inhibitor, single point]"}
{"compound": "CSc1ccccc1OCc1cc(C(=O)N(C)C(C)c2nc(C)cs2)no1", "note": "(stereo unspecified)", "Potency": "inconclusive [inhibitor, partial curve, poor fit]"}
{"compound": "O=C(OCc1ccccc1)c1cc(S(=O)(=O)N2CCCCC2)ccc1N1CCOCC1", "Potency": "inconclusive [inhibitor, single point]"}
{"compound": "CCn1c2ccccc2c2cc(NC(=O)C(C)OC(=O)c3ccc(NC(=O)CC#N)cc3)ccc21", "note": "(stereo unspecified)", "Potency": "inconclusive [inhibitor, single point]"}
{"compound": "COc1ccc(NCc2nc3ccccc3n2CCOc2ccccc2C)cc1", "Potency": "inconclusive [inhibitor, partial curve, poor fit]"}
{"compound": "C=C[C@]1(C)C=C2CCC3[C@](C)(CCC[C@@]3(C)C(=O)O)C2CC1", "note": "(stereo partly specified)", "Potency": "inconclusive [inhibitor, single point]"}
{"compound": "O=c1[nH]cccc1-c1nc2ccccc2n1Cc1ccc(Cl)cc1", "Potency": "inconclusive [inhibitor, single point]"}
{"compound": "C/C(=C\\C(=O)c1ccc(Cl)cc1)Nc1ccc(Br)cc1", "Potency": "inconclusive [inhibitor, single point]"}
{"compound": "Cc1ccc(NC(=O)CCN2CCN(C/C=C/c3ccccc3)CC2)cc1", "Potency": "inconclusive [inhibitor, partial curve, poor fit]"}
{"compound": "CCCCOc1ccc(N(CC(=O)NC(C)(C)C)C(=O)CCC(=O)Nc2nccs2)cc1", "Potency": "inconclusive [inhibitor, partial curve, poor fit]"}
{"compound": "NNC(=O)CN1C(=O)Nc2ccc(Cl)cc2C1c1ccccc1", "note": "(stereo unspecified)", "Potency": "inconclusive [inhibitor, partial curve]"}
{"compound": "CCN(CC)CC(=O)NC12CC3CC(CC(C3)C1)C2", "Potency": "inactive"}
{"compound": "COc1ccc([C@H]2CC(=O)C=C(c3cccc(OCc4ccccc4)c3)C2)cc1", "Potency": "inconclusive [inhibitor, single point]"}
{"compound": "COc1ccc(CC(=O)NC(C)CCc2ccccc2)cc1", "note": "(stereo unspecified)", "Potency": "inconclusive [inhibitor, partial curve, poor fit]"}
{"compound": "COc1cc(Cn2c3ccc(NC(=O)NCc4ccc(F)cc4)cc3c(=O)n2C)ccc1F", "Potency": "inconclusive [inhibitor, full curve]"}
{"compound": "CCOc1ccccc1C1NC(=O)c2ccccc2N1", "note": "(stereo unspecified)", "Potency": "inconclusive [inhibitor, full curve, poor fit]"}
{"compound": "N/C(=N\\OC(=O)Cc1cccc2ccccc12)c1ccccn1", "Potency": "inconclusive [inhibitor, single point]"}
{"compound": "CCC(C)[C@H](NS(=O)(=O)c1ccc(F)cc1Br)C(=O)OC", "note": "(stereo partly specified)", "Potency": "inactive"}
{"compound": "S=c1nc(-c2ccccn2)c(-c2ccccn2)n[nH]1", "Potency": "inactive"}
{"compound": "O=C(NC1CCCC1)C(c1ccccc1)n1c(-c2cccc3ccccc23)nc2ccccc21", "note": "(stereo unspecified)", "Potency": "inconclusive [inhibitor, single point]"}
{"compound": "N#Cc1c(SCc2ccccc2)nc(N2CCOCC2)c2c1CCCC2", "Potency": "inconclusive [inhibitor, partial curve, poor fit]"}
{"compound": "Cc1nc(Nc2ccc(S(N)(=O)=O)cc2)sc1C(=O)Nc1ccccc1", "Potency": "inconclusive [inhibitor, single point]"}
{"compound": "CCCC(=O)N(c1ccc2oc3c(c2c1)CCCC3)S(=O)(=O)c1ccc(CC)cc1", "Potency": "inconclusive [inhibitor, single point]"}
{"compound": "CCCN(Cc1ccccc1)C(=S)Nc1ccc(SC(F)F)cc1", "Potency": "active: 10 µM"}
{"compound": "CN(c1ncnc(N)c1[N+](=O)[O-])C1CCCCC1", "Potency": "inconclusive [inhibitor, partial curve, poor fit]"}
{"compound": "Cc1nc(C(=O)Nc2ccccc2)sc1C(=O)Nc1ccccc1", "Potency": "inconclusive [inhibitor, single point]"}
{"compound": "Cc1cc(Nc2ccccc2)n(C(=O)c2ccc(N)cc2)n1", "Potency": "inconclusive [inhibitor, single point]"}
{"compound": "c1ccc(-c2nn(-c3ccccc3)[n+](-c3ccccc3)n2)cc1", "Potency": "inactive"}
{"compound": "O=C(CC1C(=O)NCCN1Cc1c(F)cccc1Cl)NC1CCCC1", "note": "(stereo unspecified)", "Potency": "inconclusive [inhibitor, full curve, poor fit]"}
